Measured values as given in PubChem BioAssay AID504332 (National Center for Advancing Translational Sciences (NCATS), 2011).
Out of some 350,000 compounds screened, about 31,000 (8.9%) were called active. Inconclusive means that the source gave no clear call. Such entries were picked first, then a sample of the others. The call rests on the fitted dose curve; in most records, active means well fitted inhibition curve with a large enough effect; inconclusive means small, poorly fitted or top-dose-only effect; inactive means no such curve, though single readings can be large or run the other way. Where the call is inconclusive, the potency comes from a doubtful curve fit.

target: Histone-lysine N-methyltransferase EHMT2 (Homo sapiens) (UniProt Q96KQ7); assay: qHTS Assay for Inhibitors of Histone Lysine Methyltransferase G9a; details: G9a H3K9 monomethylation, AlphaScreen, 2 h; activity, negative = inhibition: at 59 µM (top of the series) unless noted; further: nearly all actives have a fitted effect of over 75% in size
Summary of the method: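 AlphaScreen read-out: biotin-H3K9 peptide (500 nM) methylation by 20 nM enzyme with 20 uM SAM, 2 h at room temperature after 15 min compound preincubation; anti-monomethyl H3K9 antibody plus donor/acceptor beads, 10 min dark.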
On the % scale 0 is the no-effect control and ±100 the full control effect; potency means the concentration at half of the fitted maximal effect; tags describe the fitted curve by direction and shape.

Chain of UniProt Q96KQ7 (Q96KQ7 whole entry, looked up): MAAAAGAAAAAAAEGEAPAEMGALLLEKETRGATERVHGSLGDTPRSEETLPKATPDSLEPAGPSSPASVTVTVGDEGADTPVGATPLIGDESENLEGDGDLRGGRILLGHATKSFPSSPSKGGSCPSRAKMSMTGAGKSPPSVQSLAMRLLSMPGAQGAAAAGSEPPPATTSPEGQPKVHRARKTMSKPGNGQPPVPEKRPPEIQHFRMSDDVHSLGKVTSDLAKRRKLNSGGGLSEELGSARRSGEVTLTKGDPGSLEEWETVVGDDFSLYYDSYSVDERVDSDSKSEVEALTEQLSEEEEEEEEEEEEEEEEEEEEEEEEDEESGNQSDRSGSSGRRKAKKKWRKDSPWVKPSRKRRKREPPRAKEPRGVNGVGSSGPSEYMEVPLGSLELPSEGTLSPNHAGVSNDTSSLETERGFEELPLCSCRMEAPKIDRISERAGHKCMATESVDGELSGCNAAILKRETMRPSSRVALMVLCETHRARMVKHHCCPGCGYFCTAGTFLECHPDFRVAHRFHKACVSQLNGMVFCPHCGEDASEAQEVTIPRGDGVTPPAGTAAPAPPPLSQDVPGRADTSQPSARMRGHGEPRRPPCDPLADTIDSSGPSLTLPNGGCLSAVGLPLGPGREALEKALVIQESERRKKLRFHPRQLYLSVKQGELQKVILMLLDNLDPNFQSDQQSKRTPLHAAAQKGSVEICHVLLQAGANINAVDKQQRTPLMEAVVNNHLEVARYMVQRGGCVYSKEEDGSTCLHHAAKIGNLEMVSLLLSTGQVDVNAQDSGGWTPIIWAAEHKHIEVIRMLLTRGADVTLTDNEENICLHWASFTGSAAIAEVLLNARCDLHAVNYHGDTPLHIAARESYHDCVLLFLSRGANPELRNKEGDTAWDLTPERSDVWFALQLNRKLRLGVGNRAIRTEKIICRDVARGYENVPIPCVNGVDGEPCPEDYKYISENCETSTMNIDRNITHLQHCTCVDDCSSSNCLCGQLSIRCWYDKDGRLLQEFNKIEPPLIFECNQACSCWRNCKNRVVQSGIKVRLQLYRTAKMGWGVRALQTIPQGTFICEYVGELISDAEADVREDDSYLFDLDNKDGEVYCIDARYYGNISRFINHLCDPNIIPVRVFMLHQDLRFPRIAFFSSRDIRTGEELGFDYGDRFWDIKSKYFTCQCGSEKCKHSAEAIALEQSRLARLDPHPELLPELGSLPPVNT

SMILES | Potency | activity, negative = inhibition
CN(C)c1ccc(NC(=O)c2ccc(COc3cccc(Cl)c3)o2)cc1 | inconclusive: 1.78 µM [inhibitor, partial curve, poor fit] | –
CCc1cccc(NC(=O)[C@@H]2CCCN2C2=NS(=O)(=O)c3ccccc32)c1 | – | inactive: 28.2% [at 12.7 µM]
COc1cc(C(=S)N2CCOCC2)ccc1OC(=O)c1ccccc1 | active: 39.8 µM | –
N#Cc1c(N)nc2c(c1-c1cccc(O)c1)CCCCCC2 | inactive | –
Cc1cccc(-n2c(O)c(C=NC3CCS(=O)(=O)C3)c3ccccc3c2=O)c1 (stereo not drawn) | inconclusive: 2.24 µM [inhibitor, partial curve, poor fit] | –
COc1ccc(OC)c(NC(=O)c2ccc3c(SCC(=O)O)c4c(nc3c2)CCCC4)c1 | inactive | –
CCOC(=O)c1c(NC(=O)/C=C/C(=O)O)sc(C)c1-c1ccc(C(C)(C)C)cc1 | inconclusive: 44.7 µM [inhibitor, partial curve, poor fit] | –
Cc1cccc(CCNC(=O)c2ccc3c(c2)nc2n3CCC(C)C2)c1 (stereo not drawn) | inactive | –
CCc1cccc(C)c1NC(=O)Cn1c(=O)n(-c2ccc(C)cc2)c(=O)c2c1cnn2C | inactive | –
O=C1C2C3c4ccccc4C(c4ccccc43)[C@@H]2C(=O)N1c1nc(-c2ccccc2)cs1 (stereo partly drawn) | inactive | –
COc1ccc(CCn2nnnc2CN2CCN(C(=O)c3ccco3)CC2)cc1OC | – | inactive: -7.01% [at 0.501 µM]
Cc1ccc(C(=O)NC(=S)Nc2cccnc2Cl)cc1 | inconclusive: 79.4 µM [inhibitor, single point] | –
COc1ccccc1CN(Cc1cc2cc(C)ccc2[nH]c1=O)Cc1nnnn1Cc1ccco1 | inconclusive: 22.4 µM [inhibitor, single point] | –
COc1ccc(/C=C(/NC(=O)c2ccco2)C(=O)N2CCc3ccccc32)cc1OC | inconclusive: 79.4 µM [inhibitor, single point] | –
CCOC(=O)CC1=C(C(=O)OCC)C(c2cccs2)C(C#N)=C(N)O1 (stereo not drawn) | inactive | –
COc1cc(OC)cc(C(=O)Nc2ccccc2N2CCOCC2)c1 | inactive | –
CC(CN1CCOCC1)OC(=O)c1ccc(Cl)cc1Cl (stereo not drawn) | inconclusive: 89.1 µM [inhibitor, single point] | –
COc1ccc(CCNC(=O)COC(=O)c2ccc(Br)o2)cc1OC | inconclusive: 3.16 µM [inhibitor, partial curve, poor fit] | –
Cc1ccc2cc(CN(C(=O)c3ccco3)c3ccccc3)c(=O)[nH]c2c1 | – | inconclusive: -64.6% [inhibitor]
Nc1c(O)cccc1C(=O)C[C@@H](N)C(=O)O | inconclusive: 3.55 µM [inhibitor, partial curve, poor fit] | –
COc1cc(SC)ccc1C(=O)Nc1ccc2c(c1)OCCO2 | active: 50.1 µM | –
CCN(CC)S(=O)(=O)c1ccc(NC2CCCc3ccccc32)nc1 (stereo not drawn) | inconclusive: 35.5 µM [inhibitor, single point] | –
O=c1c2ccccc2nc(N2CCN(c3ccccc3)CC2)n1Cc1ccccc1 | inconclusive: 89.1 µM [inhibitor, single point] | –

SMILES | Potency | activity, negative = inhibition
Cc1ccc(C(C[N+](=O)[O-])c2c(C)[nH]n(-c3ccccc3)c2=O)cc1 (stereo not drawn) | inconclusive: 25.1 µM [inhibitor, single point] | –
CCc1ccc(S(=O)(=O)Nc2ccc(O)c3c(=O)cc(-c4ccccc4Cl)oc23)cc1 | – | inconclusive: -65.4% [inhibitor]
Cc1csc(NC(=O)c2nc3nc(C)cc(C)n3n2)n1 | inconclusive: 25.1 µM [inhibitor, single point] | –
CCC(C)NCCOc1ccc(C(C)(C)c2ccccc2)cc1 (stereo not drawn) | active: 7.94 µM | –
Cc1ccc(NC(=O)CN2CCN(CCN=CC3=C(O)CC(C)(C)CC3=O)CC2)cc1 | inconclusive: 50.1 µM [inhibitor, partial curve] | –
CCCCNS(=O)(=O)c1ccc2nc(SCC(=O)c3ccccc3OC)[nH]c2c1 | active: 35.5 µM | –
Cc1ccc(-c2cc[n+](Cc3ccccc3)cc2)cc1 | inactive | –
CCn1nc(-c2ccccc2)c(-c2ccccc2)c(C(=O)Nc2ccc(S(N)(=O)=O)cc2)c1=O | inconclusive: 0.398 µM [inhibitor, full curve, poor fit] | –
O=c1c2sccc2n(Cc2cc(=O)n3ccccc3n2)c(=O)n1-c1cc(F)ccc1F | inactive | –
CCCCCCC(=O)Nc1nc(C)c(-c2csc(Nc3ccc(Cl)cc3)n2)s1 | inconclusive: 22.4 µM [inhibitor, single point] | –
Cc1cccc(C(=O)NC2CC3CCCC(C2)N3C(=O)Nc2ccccc2)c1 (stereo not drawn) | inconclusive: 2.82 µM [inhibitor, full curve] | –
N#Cc1c(-c2ccccc2)cc(C2CC2)nc1N | inactive | –
CC1Cc2ccccc2N1CC(=O)Nc1ccc2c(c1)OC(F)(F)O2 (stereo not drawn) | inconclusive: 3.98 µM [inhibitor, single point] | –
CN1c2ccc([N+](=O)[O-])cc2C(C)(C)C12C=Cc1cc(C(=O)O)ccc1O2 (stereo not drawn) | inconclusive: 100 µM [inhibitor, single point] | –
Cc1ccc(C)c(OCCn2c(C3CC(=O)N(Cc4ccc(F)cc4)C3)nc3ccccc32)c1 (stereo not drawn) | inconclusive: 35.5 µM [inhibitor, partial curve, poor fit] | –
c1ccc(COc2ccc(OCCN3CCCC3)cc2)cc1 | inconclusive: 28.2 µM [inhibitor, single point] | –
CC(C)(CO)Nc1nc(Cl)nc(NC2CCCCC2)n1 | inactive | –
COc1ccc(CCNC(=O)CSc2nc3nc(C)c(Cc4ccc(C)cc4)c(C)n3n2)cc1OC | inactive | –
CC(/C=C/c1ccco1)=N/NC(=O)c1ccccc1Cl | inconclusive: 3.55 µM [inhibitor, partial curve, poor fit] | –
CCc1nc(SCC(=O)NCC2CCCO2)c2c(=O)n(C)c(=O)n(C)c2n1 (stereo not drawn) | inactive | –
O=S(=O)(c1ccc(Cl)cc1)c1nc(-c2ccccc2Br)oc1NCc1ccccc1 | inconclusive: 8.91 µM [inhibitor, partial curve, poor fit] | –
CC(=O)OC[C@H]1O[C@@H](O/N=C(\C)CCN2CCCCc3nc(C)c(C)cc32)[C@H](OC(C)=O)[C@@H](OC(C)=O)[C@@H]1OC(C)=O | inconclusive: 50.1 µM [inhibitor, partial curve, poor fit] | –
COCCNC(=S)N1CCC(c2nc(-c3ccc(F)cc3)no2)CC1 | inconclusive: 15.8 µM [inhibitor, full curve] | –

SMILES | Potency | activity, negative = inhibition
CN1CCN(c2ccc([N+](=O)[O-])c(Sc3nc4ccccc4[nH]3)c2)CC1 | active: 10 µM | –
O=C(N/N=C/c1c[nH]c2ccc(Br)cc12)c1ccc2c(c1)OCO2 | inconclusive: 79.4 µM [inhibitor, single point] | –
CCn1c(C)c(C)c2cc(C(=O)NCCCN3CCCCC3C)ccc21 (stereo not drawn) | inactive | –
COc1ccc(C(=O)N2CCCC(C(=O)N3CCN(c4ccccc4)CC3)C2)cc1 (stereo not drawn) | inactive | –
CN1CCN(c2ccc(C(=O)c3ccc(Br)cc3)cc2[N+](=O)[O-])CC1 | active: 44.7 µM | –
O=C(COC(=O)c1nc(Cl)ccc1Cl)Nc1ccc2[nH]c(=O)[nH]c2c1 | inconclusive: 89.1 µM [inhibitor, single point] | –
O=[N+]([O-])c1ccc(C2=Nc3cc(Cl)ccc3OC2)cc1 | inconclusive: 8.91 µM [inhibitor, full curve, poor fit] | –
COc1ccc(-n2cc(C(=O)N(CCN(C)C)Cc3ccccc3)c3ccccc3c2=O)cc1 | inactive | –
COc1ccccc1N(CC(=O)N1CCN(c2ccc(F)cc2)CC1)S(=O)(=O)c1ccc(C)cc1 | inconclusive: 56.2 µM [inhibitor, single point] | –
C=CCNC(=O)CN1c2cccc3cccc(c23)S1(=O)=O | inconclusive: 15.8 µM [inhibitor, single point] | –
Cc1ccc(C2CC(=O)N3CN(Cc4ccco4)CSC3=C2C#N)cc1 (stereo not drawn) | inconclusive: 1.78 µM [inhibitor, full curve, poor fit] | –
CCOc1ccc(N=c2scc(-c3ccccc3)n2CCO)cc1 | active: 15.8 µM | –
O=[N+]([O-])c1cc(C(F)(F)F)c(Cl)cc1N1CCN(CCO)CC1 | inconclusive: 79.4 µM [inhibitor, single point] | –
N#Cc1cc([N+](=O)[O-])ccc1N1CCN(c2ccccc2O)CC1 | inconclusive: 3.16 µM [inhibitor, partial curve, poor fit] | –
Cc1cc2cc(CNC(=O)c3ccc4c(c3)OCO4)ccc2[nH]1 | active: 50.1 µM | –
O=C(O)c1c(-c2ccccc2)c(-c2ccccc2)nc2ccccc12 | inconclusive: 70.8 µM [inhibitor, partial curve, poor fit] | –
COc1ccc(N2CCN(C(c3cc(OC)ccc3OC)c3nnnn3CC3CCCO3)CC2)cc1 (stereo not drawn) | active: 14.1 µM | –
Cc1cc(C)nc(-n2nc(C)c(Oc3ccccc3O)c2C)n1 | inconclusive: 89.1 µM [inhibitor, single point] | –
COc1cc(Cl)c(C)cc1NC(=O)CSc1sc2c(O)cc(=O)[nH]c2c1C#N | inconclusive: 39.8 µM [inhibitor, single point] | –
CC(=O)NC(CC(=O)O)c1ccc(F)cc1 (stereo not drawn) | inactive | –
CC1CCCCN1C(=O)CSc1nc(C2CC2)nc2c1cnn2-c1ccccc1 (stereo not drawn) | inconclusive: 3.55 µM [inhibitor, partial curve, poor fit] | –
COc1ccc(CNC(C)CCc2ccccc2)cc1 (stereo not drawn) | inconclusive: 44.7 µM [inhibitor, partial curve, poor fit] | –
